# Where “and” joins values, the source holds several entries; their conditions need not be identical. Equal values may be shown once. Hit rate of the full screen: of about 270,000 compounds, about 5,800 (2.1%) were called active. The shares of active, inactive and inconclusive entries below differ from those in the screen. Calls follow the shape of the dose curve; as a rule, active = well fitted inhibition curve with a large enough effect; inconclusive = small, poorly fitted or top-dose-only effect; inactive = flat fitted curve, though single readings scatter. A potency beside an inconclusive call is a rough fit, not a confirmed value.
# Molecular target: Microtubule-associated protein tau (Homo sapiens) (UniProt P10636)
# Chain of UniProt P10636 (P10636 whole entry, looked up): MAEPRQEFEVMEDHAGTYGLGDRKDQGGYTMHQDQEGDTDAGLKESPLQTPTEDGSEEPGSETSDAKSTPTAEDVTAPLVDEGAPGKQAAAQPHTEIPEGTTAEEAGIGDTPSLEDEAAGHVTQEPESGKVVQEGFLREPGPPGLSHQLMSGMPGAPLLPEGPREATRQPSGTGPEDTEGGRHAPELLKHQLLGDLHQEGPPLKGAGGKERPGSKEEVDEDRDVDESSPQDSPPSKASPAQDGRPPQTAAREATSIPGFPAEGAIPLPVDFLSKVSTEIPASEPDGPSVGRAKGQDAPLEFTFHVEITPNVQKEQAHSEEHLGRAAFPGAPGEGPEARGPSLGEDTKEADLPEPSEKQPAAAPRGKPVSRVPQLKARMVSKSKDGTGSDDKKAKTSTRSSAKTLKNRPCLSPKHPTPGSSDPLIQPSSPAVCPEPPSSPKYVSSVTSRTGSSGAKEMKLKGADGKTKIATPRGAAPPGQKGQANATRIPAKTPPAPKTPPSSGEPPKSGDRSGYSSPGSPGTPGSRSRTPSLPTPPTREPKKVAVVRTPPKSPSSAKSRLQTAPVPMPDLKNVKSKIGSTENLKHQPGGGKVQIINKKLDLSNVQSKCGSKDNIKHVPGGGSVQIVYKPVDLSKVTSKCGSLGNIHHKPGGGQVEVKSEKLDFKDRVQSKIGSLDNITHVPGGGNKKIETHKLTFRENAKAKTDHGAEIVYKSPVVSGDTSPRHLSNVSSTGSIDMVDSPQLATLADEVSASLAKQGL
# Assay: qHTS for Inhibitors of Tau Fibril Formation, Thioflavin T Binding; also: nearly all actives have a fitted effect of over 55% in size
# Conditions: recombinant tau K18 P301L (four-repeat tau fragment), heparin-induced fibrillization, ThT fluorescence; series mostly up to 57.4 µM
# How it was run: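 Tau K18 P301L fragment (15 uM unlabeled plus 0.24 uM Alexa 594-labeled) in 100 mM sodium acetate pH 7 with compound, fibrillization induced by 20 uM heparin for 6 hr at 37 C. Thioflavin T (30 uM) added, fluorescence read after 1 hr (ex 450, em 510 nm).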
# Potency is read from the fitted curve at half-maximal effect; tags tell the direction and shape of the fitted curve.
row,Structure (SMILES),Potency
1,Cc1cccc(NC(=O)/C=C/c2ccc([N+](=O)[O-])s2)c1,"inconclusive: 2.51 µM [inhibitor, full curve]"
2,COc1ccc(-c2nc(CSc3nc4ncccc4[nH]3)c(C)o2)cc1OC,inactive
3,O=C(Nc1cccn(Cc2cccc(F)c2)c1=O)NC1CCCCC1,inactive
4,O=C(NNC(=S)Nc1ccccc1)c1ccncc1,inactive
5,CC(=O)NC1C(c2nc3ccccc3s2)=C(c2ccccc2)C(=O)N1c1ccc(C)cc1 (centres undefined),"inconclusive: 20 µM [inhibitor, partial curve, poor fit]"
6,O=c1cc(-c2ccccc2)oc2cc(O)c(O)c(O)c12,active: 7.94 µM and active: 10 µM and active: 25.1 µM
7,CCCn1c(=N)n(CC(=O)c2ccc([N+](=O)[O-])cc2)c2ccccc21,"inconclusive: 2.82 µM [inhibitor, full curve]"
8,O=[N+]([O-])c1nn(-c2ccc3c(c2)OCCO3)n(O)c1=NC1CCCCCC1,"inconclusive: 14.1 µM [inhibitor, partial curve]"
9,COc1ccc(-c2[nH]c(-c3ccccc3)nc2SCC(=O)Nc2ccc3c(c2)OCO3)cc1,"inconclusive: 15.8 µM [inhibitor, partial curve]"
10,CCn1c(CN2CCCCC2)nc2cc(NC(=O)COc3ccc([N+](=O)[O-])cc3)ccc21,inactive
11,COc1ccc(NC(=O)c2ccc(-c3cccc(Cl)c3C)o2)cc1,"inconclusive: 0.794 µM [inhibitor, full curve]"
12,CCc1nccn1-c1cc(C(C)(C)C)nc2c(-c3ccc(Cl)cc3)cnn12,"inconclusive: 1.12 µM [inhibitor, partial curve]"
13,COc1ccc(NC(=O)C(=O)N/N=C(\C)CC(=O)Nc2ccccn2)c(OC)c1,"inconclusive: 14.1 µM [inhibitor, partial curve]"
14,CC(NC(=O)c1ccc(N2Cc3ccccc3Oc3ncccc32)s1)c1ccccc1 (centres undefined),"inconclusive: 5.01 µM [inhibitor, single point]"
15,Cc1ccc(/C=C/C(=O)Nc2ccc(Cl)cc2Cl)cc1,inactive
16,Fc1ccc2nc(Nc3nc4c(F)cccc4s3)sc2c1,"inconclusive: 2.82 µM [inhibitor, partial curve, poor fit]"
17,Cc1ccc(-n2c(C)c3c(C)nnc(C)c3c2C)cc1N,"inconclusive: 3.16 µM [inhibitor, partial curve]"
18,CCCCCCn1c(/C=C/c2ccccc2)nc2ccccc21,"inconclusive: 14.1 µM [inhibitor, single point]"
19,CC1CC(=O)N(c2ccc(NCc3ccc(Cl)cc3)c([N+](=O)[O-])c2)C1=O (centres undefined),"inconclusive: 8.91 µM [inhibitor, partial curve]"
20,COc1cc(OC)c(C2=NOC(C(=O)Nc3ccc4c(c3)OCO4)C2)cc1Cl (centres undefined),"inconclusive: 12.6 µM [inhibitor, partial curve]"
21,CC(=O)N[C@@H](CS)C(=O)O,"inconclusive: 17.8 µM [inhibitor, partial curve] and inconclusive: 31.6 µM [inhibitor, single point]"
22,N#Cc1cc2c(nc1SCc1ccncc1)CCC2,"inconclusive: 17.8 µM [inhibitor, partial curve]"

row,Structure (SMILES),Potency
1,CC1(C)CC(=O)C(N=Nc2cccc(S(=O)(=O)N3CCOCC3)c2)=C(O)C1,inactive
2,COc1ccc(C)cc1NCC(=O)Nc1ccc(C(C)(C)C)cc1,inactive
3,CCOc1ccc(-c2cnc3n2CCC3)cc1,"inconclusive: 11.2 µM [inhibitor, partial curve, poor fit]"
4,Cc1ccc(NC(=O)N2CCc3ccccc32)cc1C,"inconclusive: 8.91 µM [inhibitor, partial curve]"
5,N[C@@H](Cc1cc(I)c(Oc2ccc(O)cc2)c(I)c1)C(=O)O,inactive
6,CCOCCCNC(=O)C(C)NS(=O)(=O)c1ccc(C)cc1 (centres undefined),inactive
7,COc1ccc(CCNC(=O)c2cc(-c3ccc(C)cc3O)n[nH]2)cc1OC,"inconclusive: 2.82 µM [inhibitor, full curve]"
8,COc1ccc(C(=O)c2ccc(N3CCN(C(=O)c4ccc(F)cc4)CC3)c(F)c2)cc1Br,"inconclusive: 2.82 µM [inhibitor, full curve]"
9,CCN1C(=O)c2ccccc2S(=O)(=O)c2ccc(C(=O)NCc3ccc(F)cc3)cc21,inactive
10,COc1ccccc1-n1c(-c2ccccc2)n[nH]c1=S,inactive
11,O=C(c1ccco1)N(CCC(c1ccccc1)c1ccco1)Cc1ccccc1 (centres undefined),"inconclusive: 28.2 µM [inhibitor, single point]"
12,Cc1ccc(C2CC(c3cccs3)=NN2C(=O)c2ccco2)o1 (centres undefined),"inconclusive: 25.1 µM [inhibitor, partial curve]"
13,COc1cccc(-c2csc(N3CCN(C(=O)Nc4ccc(F)cc4)CC3)n2)c1,"inconclusive: 8.91 µM [inhibitor, partial curve]"
14,COc1ccc2c(c1)C(=O)/C(=C/C=C/c1ccccc1)CC2,inactive
15,CCN(CC)c1ccc(C=C2C(=O)OC3(CCCCC3)OC2=O)cc1,inactive
16,COc1ccc(/C=C(/C(=O)Nc2ccccc2C(=O)N2CCCC2)c2ccccc2)cc1,"inconclusive: 25.1 µM [inhibitor, single point]"
17,COc1ccc(-n2cc(CN(C)C(C)c3ccncn3)c(-c3cccc(F)c3)n2)cc1 (centres undefined),inactive
18,O=C(CCl)N=c1sccn1Cc1cccc2ccccc12,"inconclusive: 14.1 µM [inhibitor, single point]"
19,CCOC(=O)C1=C(C)N(C)C(=O)C1CC(=O)O (centres undefined),"inconclusive: 35.5 µM [inhibitor, single point]"
20,CCS(=O)(=O)Nc1ccc(Cc2ccncc2)cc1,"inconclusive: 3.55 µM [inhibitor, single point]"
21,COc1cc(C2Oc3nc(SC)nnc3-c3ccccc3N2C(C)=O)cc(Cl)c1OC (centres undefined),"inconclusive: 39.8 µM [inhibitor, single point]"
22,CCOc1cccc(N2C(=O)CC(N3CCN(c4nc5ccccc5s4)CC3)C2=O)c1 (centres undefined),"inconclusive: 31.6 µM [inhibitor, partial curve, poor fit]"
